This note sets out measurements from paper PMC4336329 (PLoS ONE, 2015).

Out of some 310,000 compounds screened, about 2,200 (0.71%) showed an effect of 50% or more. The effect is printed as a negative number. The list shows a part of the results.

Sequence of human ether-à-go-go-related gene (hERG) potassium channel (Q12809 whole entry, looked up): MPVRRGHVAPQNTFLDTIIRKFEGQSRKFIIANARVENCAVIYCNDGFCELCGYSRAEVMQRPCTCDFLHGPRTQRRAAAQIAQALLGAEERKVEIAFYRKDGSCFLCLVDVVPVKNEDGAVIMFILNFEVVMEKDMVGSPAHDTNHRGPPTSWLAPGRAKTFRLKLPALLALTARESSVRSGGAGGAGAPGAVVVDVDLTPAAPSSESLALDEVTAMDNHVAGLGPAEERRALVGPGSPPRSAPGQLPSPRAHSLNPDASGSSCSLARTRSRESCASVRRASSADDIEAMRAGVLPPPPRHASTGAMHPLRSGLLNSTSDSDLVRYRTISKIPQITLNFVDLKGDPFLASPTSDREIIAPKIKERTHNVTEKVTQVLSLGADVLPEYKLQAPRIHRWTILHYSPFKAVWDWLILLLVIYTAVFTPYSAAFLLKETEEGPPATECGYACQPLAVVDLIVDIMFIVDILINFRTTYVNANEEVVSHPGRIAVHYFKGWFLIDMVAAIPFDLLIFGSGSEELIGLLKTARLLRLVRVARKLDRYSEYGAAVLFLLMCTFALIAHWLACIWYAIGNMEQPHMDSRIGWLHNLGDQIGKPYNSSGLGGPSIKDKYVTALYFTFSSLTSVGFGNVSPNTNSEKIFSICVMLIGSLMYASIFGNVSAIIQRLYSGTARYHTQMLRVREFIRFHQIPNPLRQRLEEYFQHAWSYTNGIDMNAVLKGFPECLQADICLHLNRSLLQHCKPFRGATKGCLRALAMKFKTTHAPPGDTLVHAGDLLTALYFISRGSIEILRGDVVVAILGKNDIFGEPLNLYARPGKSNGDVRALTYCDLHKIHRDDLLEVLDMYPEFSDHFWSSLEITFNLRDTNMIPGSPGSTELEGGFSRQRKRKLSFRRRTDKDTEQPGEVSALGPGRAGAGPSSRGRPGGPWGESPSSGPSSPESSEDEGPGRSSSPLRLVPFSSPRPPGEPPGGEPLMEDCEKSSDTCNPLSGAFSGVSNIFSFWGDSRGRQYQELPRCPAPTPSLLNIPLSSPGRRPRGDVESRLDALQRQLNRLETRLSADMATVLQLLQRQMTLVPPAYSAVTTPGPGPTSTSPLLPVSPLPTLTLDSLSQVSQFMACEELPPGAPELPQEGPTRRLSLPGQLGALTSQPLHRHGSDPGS

The assay has as its target human ether-à-go-go-related gene (hERG) potassium channel (human, UniProt Q12809). The assay is described as follows: primary screen, population patch clamp on CHO cells stably expressing hERG.
As to `Cc1ccc(NC(=O)CN(C)C(=O)c2n[nH]c(=O)c3ccccc23)cc1`, the “hERG current change (%, negative = inhibition) at 1uM” value turned out to be 3.02%.
For `Cc1ccc(N(CC(=O)NCc2ccccc2Cl)S(=O)(=O)c2cccs2)cc1`, the “hERG current change (%, negative = inhibition) at 1uM” value worked out at 11.5%.
In the case of `O=C(CSc1nnc(CNC(=O)c2ccccc2)o1)NCc1ccc(F)cc1` it was 12%; in that of `COc1cccc(-c2nc(C(N)=O)c3[nH]c(=O)n(-c4cccc(Cl)c4)c3n2)c1OC`, 6.22%.
In the case of `Nc1cc(N)nc(SCC(=O)c2ccc3c(c2)NC(=O)CO3)n1` it was 15.8%.
In the case of `Cc1cc(=O)[nH]c(N/N=C/c2ccccn2)n1` it was 11.5%; in that of `COc1ccc(-c2cc(-c3ccccc3)c(C#N)c(S(C)(=O)=O)n2)cc1`, -13.2%.
As to `O=C(CCS(=O)(=O)c1ccc(Cl)cc1)Nc1ccc(N2CCOCC2)cc1`, the “hERG current change (%, negative = inhibition) at 1uM” value is 2.82%.
In the case of `COc1coc(C(O)CN)cc1=O` (centres unmarked) it was 10.2%; in that of `Cc1ccc(NC(=O)C/C(N)=N/O)cc1Cl`, 9.8%.
In the case of `COc1cccc(N(CC(=O)Nc2ccccc2C)S(C)(=O)=O)c1` it was 7.72%; in that of `Cc1ccc(C(=O)CSc2nnc3c4ccccc4nc(Cc4ccccc4)n23)cc1`, 10.8%; in that of `CC(C)(C)c1cc(CCC(=O)NCc2ccncc2)cc(C(C)(C)C)c1O`, 5.65%.
The value for `COC(=O)c1sccc1NC(=O)CSc1nnnn1-c1ccccc1C` was 6.69%.
With `COc1ccc(NC(=S)N2CCN(C(=O)C3CCCO3)CC2)cc1` (centres unmarked), the “hERG current change (%, negative = inhibition) at 1uM” value came to 0.786%.
With `Clc1ccccc1Cc1noc(CN2CCN(Cc3ccccn3)CC2)n1`, the “hERG current change (%, negative = inhibition) at 1uM” value worked out at 11%.
Turning to `CNC(=S)Nc1cccc(S(=O)(=O)NC2=NCCC2)c1`, the “hERG current change (%, negative = inhibition) at 1uM” value was -5.3%.
The value for `C#CCOc1ccc(/C=C2\SC(=S)N(Cc3cccnc3)C2=O)cc1` was 19.2%; that for `O=C(CCCN=C1NS(=O)(=O)c2ccccc21)OCc1ccccc1` was -14.4%.
Take `CCn1c(=O)c([N+](=O)[O-])c(NC2CCS(=O)(=O)C2)c2ccccc21` (centres unmarked): the “hERG current change (%, negative = inhibition) at 1uM” value is 8.5%.
Regarding `OCCCN=C1CCCc2c1[nH]c1ccc(Cl)cc21`, the “hERG current change (%, negative = inhibition) at 1uM” value is reported as -0.96%.
In the case of `CC1=CCC(C(=O)O)C(C(=O)Nc2nc3ccc(S(C)(=O)=O)cc3s2)C1` (centres unmarked) it was 12.4%.
As for `Cn1c(CNS(=O)(=O)c2cccc(Cl)c2)cc(=O)n(C)c1=O`, the “hERG current change (%, negative = inhibition) at 1uM” value is on record as 15.7%.
The value for `COc1ccc(CN2CCNCC2)c(OC)c1OC.Cl` was 16.3%.
In the case of `CCc1c(C(=O)NNC(=S)NCC(C)C)csc1C` it was 2.49%; in that of `Cc1nn(CC(=O)N/N=C/c2ccc3c(c2)OCO3)c(C)c1Br`, 15.2%.
On to `S=C(Nc1ccc(Cl)cc1)N(CCCN1CCOCC1)Cc1cccs1`, for which the “hERG current change (%, negative = inhibition) at 1uM” value is -4.13%.
In the case of `CCOc1ccc(NC(=O)Nc2cc(C)ccc2F)cc1` it was -5.76%; in that of `O=C(NCCc1csc(-c2cccnc2)n1)c1c(F)cccc1F`, 15.6%; in that of `COc1ccc(OC)c(CN2CCCC(C(=O)N3CCCCC3)C2)c1.O=C(O)C(=O)O` (centres unmarked), -4.96%.
The value for `CSc1cccc(NC(=O)CN(c2cccc(C)c2)S(C)(=O)=O)c1` was -12.9%; that for `Cc1ccc(C2C(C(=O)c3cc4ccccc4o3)=C(O)C(=O)N2CCN2CCOCC2)cc1` (centres unmarked) was 25.1%.
As to `CC(=O)c1c(C)nc(-c2ccc(OCC(=O)Nc3cccc(C)c3C)cc2)n1O`, the “hERG current change (%, negative = inhibition) at 1uM” value was found to be 7.08%.
The value for `O=C(O)c1cc(N/N=C/c2ccc(-c3ccc(F)cc3)o2)ccc1Cl` was 8.72%; that for `CCc1cc(=O)[nH]c(SCCc2ccccc2)n1` was 10.3%; that for `O=C(COC(=O)C1CCC1)Nc1ccc(Oc2ccccc2)cc1` was 12.5%.
As for `O=C(CCc1nc(-c2ccccc2F)no1)NCCN1CCN(Cc2ccccc2)CC1`, the “hERG current change (%, negative = inhibition) at 1uM” value is listed as -15.5%.
The value for `Cc1ccc(NS(=O)(=O)c2ccc(NC(=O)CN(c3cc([N+](=O)[O-])ccc3C)S(C)(=O)=O)cc2)c(C)c1` was -11.1%; that for `CN1CCN(c2ccc(C=O)cc2)CC1` was -1.88%; that for `Cc1c(C#N)c(N=CN(C)C)c(C(=O)c2ccccc2)n1-c1ccc(Br)cc1` was -5.19%.
Regarding `COc1cc(-c2nc3cc(C)ccn3c2NC2CCCCC2)ccc1-c1ccc(C(C)=O)cc1.O=C(O)C(F)(F)F`, the “hERG current change (%, negative = inhibition) at 1uM” value came out at 2.27%.
Take `CC(C)OC(=O)/C(C#N)=C/c1c[nH]c2ccccc12`: the “hERG current change (%, negative = inhibition) at 1uM” value worked out at 12%.
The value for `Nc1cccc(/C=C/c2ccncc2)c1` was 10.9%; that for `COc1ccc(-c2nn(-c3ccccc3)cc2C(=O)NC(=S)NNC(=O)c2ccncc2)cc1` was 11.2%.
